The other results are listed elsewhere or left out. At the low end of the ranking the order means little.
molecular target: GST-SBP-SLBP (stem-loop binding protein) (UniProt Q14493); assay: targeted RNA Bind-n-Seq; conditions: RBNS binding buffer: 25 mM Tris pH 7.5, 150 mM KCl, 3 mM MgCl2, 0.1% Tween, 0.5 mg/mL BSA, 1 mM DTT; 27 nM protein, 750 pM RNA pool; temperature not stated; high values mean tight binding;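 also: DESeq read counts versus GST-SBP nonspecific binding control pulldown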

| Sequence | binding signal (log2 fold change) |
| --- | --- |
| GGUCACGUCUCAAUCAACUCAAACGAGGGGGGGAAAACCCCUUUACCCUCAUAUUCAACAGCUCGCAGUCAAG | -0.194 |
| GGUCACGUCUCAAUCAACUCUAUUCCAGGAGUUUUCUCCUGUAAAUUCAACAGCUCGCAGUCAAG | -0.16 |
| GGUCACGUCUCAAUCAACUCUAUUUCAGGAGUUUCCUCCUGUUUAUUCAACAGCUCGCAGUCAAG | 0.00445 |
| GGUCACGUCUCAAUCAACUCAACUUCAGGAGUUUGCUCCUGUAAAUUCAACAGCUCGCAGUCAAG | 0.155 |
| GGUCACGUCUCAAUCAACUCAUUCCCCAGGGAAAACCCUGGCAAUUUCAACAGCUCGCAGUCAAG | -0.101 |
| GGUCACGUCUCAAUCAACUCAAUCGAGGGGGGGAAAACCCCUUUACCCUCACAUUCAACAGCUCGCAGUCAAG | -0.253 |
| GGUCACGUCUCAAUCAACUCUCAAGAGGGGGGGAAAACCCCUUUGCCCUCAAUUUCAACAGCUCGCAGUCAAG | -0.0814 |
| GGUCACGUCUCAAUCAACUCAAUUCCCAGGGAAAUCCCUGGUAUAUUCAACAGCUCGCAGUCAAG | -0.283 |
| GGUCACGUCUCAAUCAACUCUAGUCCAGGAGUUUUCUCCUGUUUUUUCAACAGCUCGCAGUCAAG | -0.217 |
| GGUCACGUCUCAAUCAACUCAUUCCCCAGGGAAAACCCUGGUAAUCUCAACAGCUCGCAGUCAAG | 0.22 |
| GGUCACGUCUCAAUCAACUCAUUUCCAGGAGUUUUCUCCUGCUAACUCAACAGCUCGCAGUCAAG | 0.0368 |
| GGUCACGUCUCAAUCAACUCUUCUUCCAGGGAAAUCCCUGGCUUAUUCAACAGCUCGCAGUCAAG | -0.0924 |
| GGUCACGUCUCAAUCAACUCGUUUUCAGGAGUUUCCUCCUGCAUUCUCAACAGCUCGCAGUCAAG | 0.204 |
| GGUCACGUCUCAAUCAACUCAUUCUCCAGGGAAAGCCCUGGCUUUUUCAACAGCUCGCAGUCAAG | 0.0656 |
| GGUCACGUCUCAAUCAACUCUAUAGAGGGGGGGAAAACCCCUUUACCCUCAAACUCAACAGCUCGCAGUCAAG | 0.039 |
| GGUCACGUCUCAAUCAACUCAAUCUCCAGGGAAAGCCCUGGCUAACUCAACAGCUCGCAGUCAAG | 0.405 |
| GGUCACGUCUCAAUCAACUCUUUCGAGGGGGGGAAAACCCCUUUGCCCUCACUUUCAACAGCUCGCAGUCAAG | -0.243 |
| GGUCACGUCUCAAUCAACUCAUCGUCAGGAGUUUCCUCCUGCUAAUUCAACAGCUCGCAGUCAAG | -0.0608 |
| GGUCACGUCUCAAUCAACUCAACUCCCAGGGAAAGCCCUGGCUAAUUCAACAGCUCGCAGUCAAG | 0.0142 |
| GGUCACGUCUCAAUCAACUCAUCUUCAGGAGUUUGCUCCUGCAUUUUCAACAGCUCGCAGUCAAG | -0.065 |
| GGUCACGUCUCAAUCAACUCAACUCCAGGAGUUUUCUCCUGCAAUGUCAACAGCUCGCAGUCAAG | -0.102 |
| GGUCACGUCUCAAUCAACUCUUCGCCAGGAGUUUUCUCCUGUAAACUCAACAGCUCGCAGUCAAG | 0.124 |
| GGUCACGUCUCAAUCAACUCGUCUUCAGGAGUUUUCUCCUGUUUAUUCAACAGCUCGCAGUCAAG | -0.14 |
| GGUCACGUCUCAAUCAACUCUUUUUCCAGGGAAACCCCUGGCAAUCUCAACAGCUCGCAGUCAAG | 0.214 |
| GGUCACGUCUCAAUCAACUCAUUCCCCAGGGAAAGCCCUGGUAUUUUCAACAGCUCGCAGUCAAG | 0.224 |

| Sequence | binding signal (log2 fold change) |
| --- | --- |
| GGUCACGUCUCAAUCAACUCAAUUCCAGGAGUUUACUCCUGCAUUCUCAACAGCUCGCAGUCAAG | 0.0222 |
| GGUCACGUCUCAAUCAACUCUACUUCAGGAGUUUUCUCCUGCUUAUUCAACAGCUCGCAGUCAAG | 0.0591 |
| GGUCACGUCUCAAUCAACUCUUCGCCAGGAGUUUUCUCCUGCUUUCUCAACAGCUCGCAGUCAAG | -0.0133 |
| GGUCACGUCUCAAUCAACUCUUUCUCCAGGGAAAGCCCUGGCAUUCUCAACAGCUCGCAGUCAAG | 0.179 |
| GGUCACGUCUCAAUCAACUCAUUCUCCAGGGAAAACCCUGGUUAACUCAACAGCUCGCAGUCAAG | 0.0621 |
| GGUCACGUCUCAAUCAACUCAAUAGAGGGGGGGAAAACCCCUUUACCCUCAGAAUCAACAGCUCGCAGUCAAG | -0.492 |
| GGUCACGUCUCAAUCAACUCAAUUUCAGGAGUUUACUCCUGUUUUCUCAACAGCUCGCAGUCAAG | -0.0153 |
| GGUCACGUCUCAAUCAACUCUAUCUCCAGGGAAACCCCUGGUUUACUCAACAGCUCGCAGUCAAG | -0.013 |
| GGUCACGUCUCAAUCAACUCAUCGCCCAGGGAAAUCCCUGGUUUUUUCAACAGCUCGCAGUCAAG | 0.15 |
| GGUCACGUCUCAAUCAACUCUCUAGAGGGGGGGAAAACCCCUUUACCCUCGUUAUCAACAGCUCGCAGUCAAG | -0.142 |
| GGUCACGUCUCAAUCAACUCAUCUUCAGGAGUUUACUCCUGCUAACUCAACAGCUCGCAGUCAAG | 0.134 |
| GGUCACGUCUCAAUCAACUCUUUUCCCAGGGAAACCCCUGGUAUAUUCAACAGCUCGCAGUCAAG | 0.104 |
| GGUCACGUCUCAAUCAACUCAUCGUCAGGAGUUUCCUCCUGUAAACUCAACAGCUCGCAGUCAAG | 0.105 |
| GGUCACGUCUCAAUCAACUCAGUUUCAGGAGUUUACUCCUGUAUAUUCAACAGCUCGCAGUCAAG | 0.115 |
| GGUCACGUCUCAAUCAACUCUUUCUCAGGAGUUUUCUCCUGUUAUCUCAACAGCUCGCAGUCAAG | -0.0521 |
| GGUCACGUCUCAAUCAACUCAAUCCCCAGGGAAAACCCUGGCUAACUCAACAGCUCGCAGUCAAG | -0.246 |
| GGUCACGUCUCAAUCAACUCAGUCCCAGGAGUUUGCUCCUGUAUUUUCAACAGCUCGCAGUCAAG | 0.127 |
| GGUCACGUCUCAAUCAACUCUUCUUCCAGGGAAAACCCUGGUAAUUUCAACAGCUCGCAGUCAAG | -0.174 |
| GGUCACGUCUCAAUCAACUCUCAAGAGGGGGGGAAAACCCCUUUACCCUCGUUUUCAACAGCUCGCAGUCAAG | -0.248 |
| GGUCACGUCUCAAUCAACUCCCUCGAGGGGGGGAAAACCCCUUUACCCUCAUCGUCAACAGCUCGCAGUCAAG | 0.532 |
| GGUCACGUCUCAAUCAACUCAAUUCCCAGGGAAAACCCUGGUAUUCUCAACAGCUCGCAGUCAAG | -0.205 |
| GGUCACGUCUCAAUCAACUCUCCAGAGGGGGGGAAAACCCCUUUACCCUCCUUAUCAACAGCUCGCAGUCAAG | -0.322 |
| GGUCACGUCUCAAUCAACUCAUUCCCCAGGGAAAACCCUGGCUAUUUCAACAGCUCGCAGUCAAG | 0.0465 |
| GGUCACGUCUCAAUCAACUCAAUCCCAGGAGUUUACUCCUGCAAUGUCAACAGCUCGCAGUCAAG | 0.104 |
| GGUCACGUCUCAAUCAACUCAUUUUCAGGAGUUUACUCCUGCAUAGUCAACAGCUCGCAGUCAAG | 0.235 |

| Sequence | binding signal (log2 fold change) |
| --- | --- |
| GGUCACGUCUCAAUCAACUCUUCCUCAGGAGUUUUCUCCUGUUUAUUCAACAGCUCGCAGUCAAG | 0.0107 |
| GGUCACGUCUCAAUCAACUCUUACGAGGGGGGGAAAACCCCUUUGCCCUCAAUAUCAACAGCUCGCAGUCAAG | -0.0349 |
| GGUCACGUCUCAAUCAACUCAAUUCCCAGGGAAAGCCCUGGUAUACUCAACAGCUCGCAGUCAAG | -0.0615 |
| GGUCACGUCUCAAUCAACUCAUCGUCAGGAGUUUUCUCCUGCUUUUUCAACAGCUCGCAGUCAAG | 0.274 |
| GGUCACGUCUCAAUCAACUCUAUUCCCAGGGAAAGCCCUGGCUUUUUCAACAGCUCGCAGUCAAG | -0.0248 |
| GGUCACGUCUCAAUCAACUCUUUCCCCAGGGAAAGCCCUGGUAAUUUCAACAGCUCGCAGUCAAG | 0.0874 |
| GGUCACGUCUCAAUCAACUCAAGUCCAGGAGUUUUCUCCUGUAUAUUCAACAGCUCGCAGUCAAG | -0.115 |
| GGUCACGUCUCAAUCAACUCAAAAGAGGGGGGGAAAACCCCUUUACCCUCACUUUCAACAGCUCGCAGUCAAG | -0.163 |
| GGUCACGUCUCAAUCAACUCUUUCUCCAGGGAAAUCCCUGGCAAUCUCAACAGCUCGCAGUCAAG | -0.122 |
| GGUCACGUCUCAAUCAACUCAUACGAGGGGGGGAAAACCCCUUUGCCCUCAUCAUCAACAGCUCGCAGUCAAG | 0.0664 |
| GGUCACGUCUCAAUCAACUCAAGUCCAGGAGUUUUCUCCUGCAAAUUCAACAGCUCGCAGUCAAG | 0.214 |
| GGUCACGUCUCAAUCAACUCAUUCGCAGGAGUUUACUCCUGGUUUCUCAACAGCUCGCAGUCAAG | 0.00351 |
| GGUCACGUCUCAAUCAACUCCUUAGAGGGGGGGAAAACCCCUUUACCCUCAAAUUCAACAGCUCGCAGUCAAG | -0.557 |
| GGUCACGUCUCAAUCAACUCUACAGAGGGGGGGAAAACCCCUUUGCCCUCCACAUCAACAGCUCGCAGUCAAG | 0.28 |
| GGUCACGUCUCAAUCAACUCAGUUCCAGGAGUUUACUCCUGUUUAUUCAACAGCUCGCAGUCAAG | -0.134 |
| GGUCACGUCUCAAUCAACUCUUACGAGGGGGGGAAAACCCCUUUACCCUCUUUAUCAACAGCUCGCAGUCAAG | -0.166 |
| GGUCACGUCUCAAUCAACUCAAUUUCCAGGGAAAGCCCUGGCUAAUUCAACAGCUCGCAGUCAAG | 0.0289 |
| GGUCACGUCUCAAUCAACUCUACUUCCAGGGAAACCCCUGGUUAUUUCAACAGCUCGCAGUCAAG | 0.0826 |
| GGUCACGUCUCAAUCAACUCUUCUUCCAGGGAAAUCCCUGGCUAUUUCAACAGCUCGCAGUCAAG | 0.0517 |
| GGUCACGUCUCAAUCAACUCAGUUUCAGGAGUUUCCUCCUGUUUUCUCAACAGCUCGCAGUCAAG | -0.093 |
| GGUCACGUCUCAAUCAACUCUUCGUCCAGGGAAAGCCCUGGUAUUUUCAACAGCUCGCAGUCAAG | 0.0106 |
| GGUCACGUCUCAAUCAACUCUAUGUCAGGAGUUUCCUCCUGCUUUCUCAACAGCUCGCAGUCAAG | 0.00888 |
| GGUCACGUCUCAAUCAACUCUAACGAGGGGGGGAAAACCCCUUUACCCUCACAUUCAACAGCUCGCAGUCAAG | -0.0442 |
| GGUCACGUCUCAAUCAACUCUCCCGAGGGGGGGAAAACCCCUUUACCCUCUACAUCAACAGCUCGCAGUCAAG | -0.0493 |
